What was measured:
[1] = system: MO7e cells grown in SCF; assay: Mo7e proliferation in the presence of SCF (Cell titer Glo); type: cell-based, human; conditions: 5 days, FIG. 15
Procedure: To evaluate the potential antagonistic properties of the naked antibodies and the ability of the antibody drug conjugates (ADCs) to inhibit the proliferation of a cKIT-expressing cell line, MO7e (DSMZ, Catalog # ACC-104, Braunschweig, Del.) were grown in the presence or absence of cKIT ligand, Stem Cell Factor (SCF), for survival. MO7e cells were grown in either 10 ng/ml human granulocyte-macrophage colony-stimulating factor GM-CSF (R&D Systems Cat#215-GM, Minneapolis, Minn.) or 10 ng/ml human Stem Cell Factor SCF (R&D Systems Cat#255-SC) prior to seeding in 96 well plates (Costar Cat #3904, Corning, Tewksbury, Mass.) at 5000 cells/well in 100 μl dilution medium. A duplicate plate was generated for a day 0 measurement and all plates were incubated in a tissue culture incubator at 37° C. with 5% CO2 overnight. Following this incubation, an additional 50 μl of dilution medium was added, followed by 90 μl/well of Cell titer Glo® reagent (Promega Cat# G7573, Madison, Wis.) to each well of the designated “day 0” plate. Assay plates were shaken gently for 20 min and the resulting luminescence intensity was measured using a Perkin Elmer 1450 Microbeta TriLux® plate reader (Perkin Elmer, Waltham, Mass.). Test naked Abs and ADCs were prepared at 3× concentration; 30 μg/ml in the appropriate cell culture medium and diluted serially 5-fold for 8 points. Medium only wells were also generated to act as negative controls. 50 μl of 3× serially diluted antibodies or ADCs were added (final assay concentration 0.0009-68 nM) prior to incubation in a tissue culture incubator at 37° C. with 5% CO2 for 5 days. Following this incubation period, relative cell viability was determined via the addition of Cell titer Glo reagent as described above. The effect of the ADCs on cell proliferation was calculated using the average of the duplicates as follows: (% Inhibition=(ADC or Ab treated)/(untreated)*100) The % inhibition data was fitted to a 4-parameter logistic equation and IC50 values were determined.

[2] = system: GIST-T1, GIST430, NCI-H526, NCI-H1048, CMK11-5, Uke-1 cells; assay: In vitro activity of cKIT-MCC-DM1 ADCs on GIST, SCLC and AML cell lines (Cell titer Glo); type: cell-based, human; conditions: 5 to 8 days, IgG-MCC-DM1 as control, FIGS. 4-9
Procedure: Following conjugation to the MCC-DM1 linker-payload, the ability of the antibody drug conjugates (ADCs) to inhibit the proliferation of AML, SCLC and GIST cell lines was determined. For a listing of the cells used in these experiments by supplier see Example 10 above.
Briefly, cells were cultured in a tissue culture incubator at 37° C. with 5% CO2 in culture medium as recommended by the supplier. On the day of the assay, cells were washed twice with PBS (Cellgro, Cat #21-031-CV, Corning Tewksbury, Mass.), prior to being treated with 0.1% trypsin-EDTA (in-house technical services) for 5 min and resuspended in the recommended culture medium. Cells were then counted and seeded in 96 well plates (Costar catalog #3603, Corning, Tewksbury, Mass.) at densities of 5,000 cells/well for AML and SCLC cells and 10,000 cells/well for GIST cells in 100 μl of cell culture medium. A duplicate plate was generated for a day 0 measurement and all plates were incubated in a tissue culture incubator at 37° C. with 5% CO2 overnight. Following this incubation, 100 μl/well of Cell titer Glo® reagent (Promega catalog # G7573, Promega, Madison, Wis.) was added to the day 0 plates, which were then shaken gently for 2 min, incubated for 10 min, and the resulting luminescence intensity was measured using a Perkin Elmer Wallac Microbeta® Trilux plate reader (Perkin Elmer, Waltham, Mass.). Test ADCs were serially diluted to a 3× stock solution in the appropriate cell culture medium and 50 μl of 3× serially diluted ADCs were added (final assay concentration of 0.0002-68 nM DM1 equivalents) prior to incubation in a tissue culture incubator at 37° C. with 5% CO2 for 5 to 8 days. Following this incubation period, relative cell viability was determined via the addition of Cell titer Glo® reagent as described above. The effect of the ADCs on cell proliferation was calculated using the average of the duplicates as follows: (% of maximum affection (AMAX)=(untreated-highest ADC concentration treated)*100).
The % inhibition data was fitted to a 4-parameter logistic equation and GI50 values were determined. […]

[3] = target: rat cKIT ECD; assay: SPR (Biacore 2000) affinity measurement; type: binding; conditions: 25° C., antibody captured, ECD in solution
Procedure: (§1) Affinity of the antibodies to cKIT species orthologues and also to cKIT was determined using SPR technology using a Biacore® 2000 instrument (GE Healthcare, Pittsburgh, Pa.) and with CM5 sensor chips.
(§2) Briefly, HBS-P (0.01 M HEPES, pH 7.4, 0.15 M NaCl, 0.005% Surfactant P20) supplemented with 2% Odyssey® blocking buffer (Li-Cor Biosciences, Lincoln, Nebr.) was used as the running buffer for all the experiments. The immobilization level and analyte interactions were measured by response unit (RU). Pilot experiments were performed to test and confirm the feasibility of the immobilization of the anti-human Fc antibody (Catalog number BR100839, GE Healthcare, Pittsburgh, Pa.) and the capture of the test antibodies.
(§3) For kinetic measurements, the experiments were performed in which the antibodies were captured to the sensor chip surface via the immobilized anti-human Fc antibody and the ability of the cKIT proteins to bind in free solution was determined Briefly, 25 μg/ml of anti-human Fc antibody at pH 5 was immobilized on a CM5 sensor chip through amine coupling at flow rate of 5 μl/minute on all two flow cells to reach 10,500 RUs. 0.1-1 μg/ml of test antibodies were then injected at 10 μl/min for 1 minute. Captured levels of the antibodies were generally kept below 200 RUs. Subsequently, 3.125-50 nM of cKIT receptor extracellular domains (ECD) were diluted in a 2-fold series and injected at a flow rate of 40 μl/min for 3 min over both reference and test flow cells. Table of tested ECDs is listed below. Dissociation of the binding was followed for 10 min. After each injection cycle, the chip surface was regenerated with 3 M MgCl2 at 10 μl/min for 30 s.

[4] = target: T1, mouse cKIT ECD (Mus musculus, UniProt P05532); assay: SPR (Biacore 2000) affinity measurement; type: binding; conditions: 25° C., antibody captured, ECD in solution
T1 construct: 3.125-50 nM of cKIT receptor extracellular domains (ECD) were diluted in a 2-fold series
T1 sequence (P05532 25-527 limits assumed): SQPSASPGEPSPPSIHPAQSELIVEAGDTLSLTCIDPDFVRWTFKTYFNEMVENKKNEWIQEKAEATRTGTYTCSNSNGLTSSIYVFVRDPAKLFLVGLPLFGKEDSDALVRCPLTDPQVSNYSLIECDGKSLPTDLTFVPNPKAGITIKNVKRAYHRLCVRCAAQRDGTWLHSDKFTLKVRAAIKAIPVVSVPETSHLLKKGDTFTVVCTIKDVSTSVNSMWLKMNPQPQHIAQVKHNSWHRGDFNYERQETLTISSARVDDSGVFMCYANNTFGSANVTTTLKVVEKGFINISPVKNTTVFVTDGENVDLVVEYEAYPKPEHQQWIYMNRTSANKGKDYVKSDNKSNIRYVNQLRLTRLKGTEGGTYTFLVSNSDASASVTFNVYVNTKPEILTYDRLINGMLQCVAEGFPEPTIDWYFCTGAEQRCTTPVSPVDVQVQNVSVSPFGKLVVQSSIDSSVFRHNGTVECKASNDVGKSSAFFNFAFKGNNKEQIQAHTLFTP
Procedure: as §1, §2, §3

B1: NEG024 (antibody)
heavy: EVQLVESGGGLVQPGGSLRLSCAASGFTFSDYYMAWVRQAPGKGLEWVANINQIAGSTYYLDSVRGRFTISRDNAKNSLYLQMNSLRAEDTAVYYCARGDYYGTTYWYFDVWGQGTTVTVSSASTKGPSVFPLAPSSKSTSGGTAALGCLVKDYFPEPVTVSWNSGALTSGVHTFPAVLQSSGLYSLSSVVTVPSSSLGTQTYICNVNHKPSNTKVDKRV[human IgG1 Fc omitted here]
light: EIVMTQSPATLSLSPGERATLSCRASQDISNYLNWYQQKPGQAPRLLIYYTSRLQSGIPARFSGSGSGTDYTLTISSLEPEDFAVYYCQQGKKLWSFGGGTKVEIKRTVAAPSVFIFPPSDEQLKSGTASVVCLLNNFYPREAKVQWKVDNALQSGNSQESVTEQDSKDSTYSLSSTLTLSKADYEKHKVYACEVTHQGLSSPVTKSFNRGEC
[1]
  inhibition of cell proliferation: do not have this effect
[2]
  inhibition of cell proliferation: very effective in reducing cell proliferation
[3]
  Affinity to rat cKIT: Not reactive
[4]
  Affinity mouse cKIT: Not reactive

From patent publication US9789203B2, “cKIT antibody drug conjugates” (Novartis AG, priority 2013, dated 2017)
